Experimental data as given in publication PMC7673785.
Results are given in words; binding and its absence hold for the method and conditions named. Binding seen in cells or lysates may run through a third protein. Some binding calls cover weakened binding; strength is not graded here.

The chains behind the UniProt entries cited, without tags or fusion partners. Where a name states a change or a piece, a line headed by the entry shows the natural chain unless it says otherwise.
UniProt Q9QZL0: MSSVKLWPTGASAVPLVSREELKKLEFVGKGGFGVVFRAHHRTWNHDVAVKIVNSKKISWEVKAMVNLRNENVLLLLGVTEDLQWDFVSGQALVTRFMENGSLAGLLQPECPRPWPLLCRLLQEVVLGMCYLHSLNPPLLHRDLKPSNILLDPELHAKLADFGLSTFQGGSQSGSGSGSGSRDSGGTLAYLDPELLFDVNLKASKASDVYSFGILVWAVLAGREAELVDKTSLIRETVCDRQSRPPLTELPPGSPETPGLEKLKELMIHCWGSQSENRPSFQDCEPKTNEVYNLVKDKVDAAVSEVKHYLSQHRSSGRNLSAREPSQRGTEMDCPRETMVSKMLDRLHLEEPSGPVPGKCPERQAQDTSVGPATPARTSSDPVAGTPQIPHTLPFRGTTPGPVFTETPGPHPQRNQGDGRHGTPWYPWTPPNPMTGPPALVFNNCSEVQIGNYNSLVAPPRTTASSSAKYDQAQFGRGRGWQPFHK
UniProt Q8BVP5: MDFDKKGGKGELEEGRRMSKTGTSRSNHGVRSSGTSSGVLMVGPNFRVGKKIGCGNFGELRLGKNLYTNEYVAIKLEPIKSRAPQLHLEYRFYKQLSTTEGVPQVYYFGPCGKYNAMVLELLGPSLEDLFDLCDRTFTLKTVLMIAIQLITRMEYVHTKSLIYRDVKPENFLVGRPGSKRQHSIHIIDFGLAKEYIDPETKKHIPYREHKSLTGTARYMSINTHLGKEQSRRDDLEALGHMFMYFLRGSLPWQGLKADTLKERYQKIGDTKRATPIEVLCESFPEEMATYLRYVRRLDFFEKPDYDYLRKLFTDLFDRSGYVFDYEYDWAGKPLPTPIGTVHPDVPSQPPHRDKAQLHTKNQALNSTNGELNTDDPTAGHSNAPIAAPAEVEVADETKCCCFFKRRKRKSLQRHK
UniProt Q9Y572: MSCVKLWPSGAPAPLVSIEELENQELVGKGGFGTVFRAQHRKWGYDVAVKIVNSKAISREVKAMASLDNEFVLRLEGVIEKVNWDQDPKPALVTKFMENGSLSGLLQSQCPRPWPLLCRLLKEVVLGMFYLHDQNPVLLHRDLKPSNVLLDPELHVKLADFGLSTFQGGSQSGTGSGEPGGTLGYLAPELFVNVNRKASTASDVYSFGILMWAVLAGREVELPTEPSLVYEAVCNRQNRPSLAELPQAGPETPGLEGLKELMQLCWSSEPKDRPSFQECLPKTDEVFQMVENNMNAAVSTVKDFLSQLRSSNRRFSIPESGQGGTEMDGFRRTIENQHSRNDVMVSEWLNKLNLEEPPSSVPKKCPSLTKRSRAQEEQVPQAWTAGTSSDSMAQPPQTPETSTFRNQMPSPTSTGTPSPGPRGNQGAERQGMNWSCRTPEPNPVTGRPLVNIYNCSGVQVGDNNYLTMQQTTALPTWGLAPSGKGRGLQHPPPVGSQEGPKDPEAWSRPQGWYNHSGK
UniProt P78368: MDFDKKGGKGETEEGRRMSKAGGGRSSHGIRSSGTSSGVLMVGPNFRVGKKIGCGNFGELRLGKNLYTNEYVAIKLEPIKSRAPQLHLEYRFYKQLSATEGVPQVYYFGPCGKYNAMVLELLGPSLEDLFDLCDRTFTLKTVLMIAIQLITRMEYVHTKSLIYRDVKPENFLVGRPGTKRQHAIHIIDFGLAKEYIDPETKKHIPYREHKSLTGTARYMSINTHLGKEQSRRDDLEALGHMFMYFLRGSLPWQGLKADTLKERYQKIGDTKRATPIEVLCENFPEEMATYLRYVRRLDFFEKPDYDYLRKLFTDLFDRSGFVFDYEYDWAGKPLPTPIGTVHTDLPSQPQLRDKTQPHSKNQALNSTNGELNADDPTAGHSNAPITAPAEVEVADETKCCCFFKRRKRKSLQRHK
UniProt Q13546: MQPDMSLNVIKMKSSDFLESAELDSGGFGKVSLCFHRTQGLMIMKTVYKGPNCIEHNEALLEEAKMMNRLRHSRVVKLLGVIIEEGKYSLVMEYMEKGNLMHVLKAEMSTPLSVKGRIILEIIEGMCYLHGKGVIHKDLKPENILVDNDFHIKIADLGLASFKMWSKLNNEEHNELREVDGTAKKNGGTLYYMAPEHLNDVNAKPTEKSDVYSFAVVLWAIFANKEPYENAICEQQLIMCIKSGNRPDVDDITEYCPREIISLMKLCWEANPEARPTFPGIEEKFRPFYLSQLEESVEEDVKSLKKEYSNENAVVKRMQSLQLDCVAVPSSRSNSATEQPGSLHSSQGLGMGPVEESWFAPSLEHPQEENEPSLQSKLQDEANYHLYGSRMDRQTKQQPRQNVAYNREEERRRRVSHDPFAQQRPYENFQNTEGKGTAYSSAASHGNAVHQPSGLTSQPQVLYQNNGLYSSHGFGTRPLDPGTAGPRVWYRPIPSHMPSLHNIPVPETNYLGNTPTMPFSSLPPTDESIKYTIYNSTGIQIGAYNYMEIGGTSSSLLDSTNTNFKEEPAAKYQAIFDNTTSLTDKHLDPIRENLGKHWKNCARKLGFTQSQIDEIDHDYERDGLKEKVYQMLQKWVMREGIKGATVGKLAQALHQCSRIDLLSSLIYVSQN

Legend:
[1] = molecular target: Flag-RIPK3 (in MEFs) (not stated (human or mouse cDNA cloned)) (UniProt Q9QZL0); assay: co-IP; MEF (Csnk1g2−/−) co-transfected with Myc-CSNK1G2 (WT or K75A) and Flag-RIP3 for 24 hr; extracts precipitated with anti-Flag antibody, western blot for Myc and Flag
[2] = molecular target: CSNK1G2 (endogenous, mouse) (mouse (endogenous in MEF and testis)) (UniProt Q8BVP5); assay: co-IP; testis extracts of 3-month-old wild-type and Csnk1g2 knockout mice (pool of three mice each); CSNK1G2 precipitated with anti-CSNK1G2 antibody, western blot
[3] = molecular target: HA-3×Flag-RIPK3 (in HeLa-HA-3×Flag-RIPK3 cells) (human) (UniProt Q9Y572); assay: co-IP; HeLa-HA-3×Flag-RIPK3 cells expressing Myc-CSNK1G2 (vector, WT, K75A or S211A/T215A), treated with DMSO or TSZ for 6 hr; extracts precipitated with anti-Flag antibody, western blot; lysis buffer 100 mM Tris-HCl pH 7.4, 100 mM NaCl, 10% glycerol, 1% Triton X-100, 2 mM EDTA; overnight at 4°C
[4] = molecular target: Flag-RIPK3 (in MEFs) (not stated (human or mouse cDNA cloned)) (UniProt Q9QZL0); assay: co-IP; MEF-Flag-RIPK3 and MEF (Csnk1g2−/−)-Flag-RIPK3 cells treated with the indicated stimuli for 6 hr; extracts precipitated with anti-Flag antibody, western blot for RIPK1 and CSNK1G2

binding [3]	Substance	other results
	Myc-tagged wild-type (WT) CSNK1G2 (in Csnk1g2−/− MEFs) (from UniProt Q8BVP5 1-415) (enzyme)	binding [1]: binds
	RIPK3 (endogenous, mouse testis) (from UniProt Q9QZL0 1-486) (enzyme)	binding [2]: binds
no binding	Myc-CSNK1G2 (S211A/T215A) (from UniProt P78368 1-415) (enzyme)	
no binding	Myc-CSNK1G2(K75A) (from UniProt P78368 1-415) (enzyme)	
	Myc-tagged CSNK1G2 kinase-dead mutant (K75A) (in Csnk1g2−/− MEFs) (from UniProt Q8BVP5 1-415) (enzyme)	binding [1]: no binding
binds	RIPK1 (endogenous, HeLa) (from UniProt Q13546 1-671) (enzyme)	
binds	Myc-tagged human CSNK1G2, wild type (from UniProt P78368 1-415) (enzyme)	
	CSNK1G2 (endogenous, mouse) (from UniProt Q8BVP5 1-415) (enzyme)	binding [4]: binds
